These are yes or no findings as the source states them, for the method shown. In cells and extracts the contact can be indirect. Some results given as binding are weak or reduced against the parent protein; the word gives no strength. For some of these results: Sequences can lack the tags named with a protein.

Sequences of proteins named here, by UniProt entry; tags and fusion partners are left off.
UniProt Q8CFT2: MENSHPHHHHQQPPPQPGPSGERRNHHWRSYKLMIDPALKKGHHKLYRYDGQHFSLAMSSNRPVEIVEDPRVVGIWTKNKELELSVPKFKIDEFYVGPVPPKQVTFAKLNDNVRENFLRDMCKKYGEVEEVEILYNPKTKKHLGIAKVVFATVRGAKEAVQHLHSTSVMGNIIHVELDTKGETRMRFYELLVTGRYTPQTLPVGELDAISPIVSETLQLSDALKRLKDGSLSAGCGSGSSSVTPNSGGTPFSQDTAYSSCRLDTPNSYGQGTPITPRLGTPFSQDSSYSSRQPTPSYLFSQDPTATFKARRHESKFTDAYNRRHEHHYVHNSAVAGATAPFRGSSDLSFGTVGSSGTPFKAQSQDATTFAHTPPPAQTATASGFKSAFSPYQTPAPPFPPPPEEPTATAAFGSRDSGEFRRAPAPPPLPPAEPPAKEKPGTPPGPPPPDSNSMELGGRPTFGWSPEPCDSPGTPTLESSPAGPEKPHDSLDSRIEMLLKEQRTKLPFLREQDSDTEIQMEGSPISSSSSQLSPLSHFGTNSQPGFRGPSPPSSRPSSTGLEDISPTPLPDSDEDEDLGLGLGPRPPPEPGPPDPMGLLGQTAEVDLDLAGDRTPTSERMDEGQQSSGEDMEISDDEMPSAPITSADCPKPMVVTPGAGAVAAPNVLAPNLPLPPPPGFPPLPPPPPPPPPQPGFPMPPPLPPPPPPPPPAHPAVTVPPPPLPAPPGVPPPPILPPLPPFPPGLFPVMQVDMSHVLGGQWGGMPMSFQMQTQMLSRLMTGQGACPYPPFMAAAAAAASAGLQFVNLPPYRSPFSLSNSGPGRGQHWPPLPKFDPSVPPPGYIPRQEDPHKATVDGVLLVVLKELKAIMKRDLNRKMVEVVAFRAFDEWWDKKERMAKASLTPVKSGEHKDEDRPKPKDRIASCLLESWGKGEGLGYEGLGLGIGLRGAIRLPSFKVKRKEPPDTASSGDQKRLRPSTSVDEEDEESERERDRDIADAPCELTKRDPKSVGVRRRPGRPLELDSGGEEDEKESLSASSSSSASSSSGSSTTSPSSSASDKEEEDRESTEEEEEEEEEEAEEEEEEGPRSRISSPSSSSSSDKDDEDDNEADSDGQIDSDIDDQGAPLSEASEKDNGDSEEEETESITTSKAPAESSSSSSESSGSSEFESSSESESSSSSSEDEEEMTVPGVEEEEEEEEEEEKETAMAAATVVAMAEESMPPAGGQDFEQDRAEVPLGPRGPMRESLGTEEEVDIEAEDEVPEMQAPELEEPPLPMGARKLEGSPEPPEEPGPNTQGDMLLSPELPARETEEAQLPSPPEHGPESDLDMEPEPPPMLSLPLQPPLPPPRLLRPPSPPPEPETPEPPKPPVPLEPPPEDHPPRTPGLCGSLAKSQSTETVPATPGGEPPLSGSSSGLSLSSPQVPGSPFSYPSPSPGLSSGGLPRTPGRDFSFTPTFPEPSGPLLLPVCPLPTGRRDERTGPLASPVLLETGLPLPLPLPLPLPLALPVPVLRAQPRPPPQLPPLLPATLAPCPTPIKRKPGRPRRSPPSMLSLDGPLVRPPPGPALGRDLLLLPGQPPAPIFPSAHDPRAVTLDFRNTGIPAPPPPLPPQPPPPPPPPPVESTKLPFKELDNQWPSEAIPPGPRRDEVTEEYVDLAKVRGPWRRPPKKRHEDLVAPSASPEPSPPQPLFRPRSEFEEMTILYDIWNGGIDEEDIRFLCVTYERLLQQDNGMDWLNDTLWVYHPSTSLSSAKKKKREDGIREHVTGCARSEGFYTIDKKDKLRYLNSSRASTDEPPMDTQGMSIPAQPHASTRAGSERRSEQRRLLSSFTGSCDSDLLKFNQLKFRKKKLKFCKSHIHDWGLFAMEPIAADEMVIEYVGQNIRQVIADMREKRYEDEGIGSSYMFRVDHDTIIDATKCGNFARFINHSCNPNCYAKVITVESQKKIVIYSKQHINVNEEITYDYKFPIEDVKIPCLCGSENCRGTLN

For assay [1], the target named is T1, Rbm15 of murine 6133 megakaryoblastic leukemic cells (mouse (endogenous in 6133)) (UniProt Q0VBL3).
T1 sequence: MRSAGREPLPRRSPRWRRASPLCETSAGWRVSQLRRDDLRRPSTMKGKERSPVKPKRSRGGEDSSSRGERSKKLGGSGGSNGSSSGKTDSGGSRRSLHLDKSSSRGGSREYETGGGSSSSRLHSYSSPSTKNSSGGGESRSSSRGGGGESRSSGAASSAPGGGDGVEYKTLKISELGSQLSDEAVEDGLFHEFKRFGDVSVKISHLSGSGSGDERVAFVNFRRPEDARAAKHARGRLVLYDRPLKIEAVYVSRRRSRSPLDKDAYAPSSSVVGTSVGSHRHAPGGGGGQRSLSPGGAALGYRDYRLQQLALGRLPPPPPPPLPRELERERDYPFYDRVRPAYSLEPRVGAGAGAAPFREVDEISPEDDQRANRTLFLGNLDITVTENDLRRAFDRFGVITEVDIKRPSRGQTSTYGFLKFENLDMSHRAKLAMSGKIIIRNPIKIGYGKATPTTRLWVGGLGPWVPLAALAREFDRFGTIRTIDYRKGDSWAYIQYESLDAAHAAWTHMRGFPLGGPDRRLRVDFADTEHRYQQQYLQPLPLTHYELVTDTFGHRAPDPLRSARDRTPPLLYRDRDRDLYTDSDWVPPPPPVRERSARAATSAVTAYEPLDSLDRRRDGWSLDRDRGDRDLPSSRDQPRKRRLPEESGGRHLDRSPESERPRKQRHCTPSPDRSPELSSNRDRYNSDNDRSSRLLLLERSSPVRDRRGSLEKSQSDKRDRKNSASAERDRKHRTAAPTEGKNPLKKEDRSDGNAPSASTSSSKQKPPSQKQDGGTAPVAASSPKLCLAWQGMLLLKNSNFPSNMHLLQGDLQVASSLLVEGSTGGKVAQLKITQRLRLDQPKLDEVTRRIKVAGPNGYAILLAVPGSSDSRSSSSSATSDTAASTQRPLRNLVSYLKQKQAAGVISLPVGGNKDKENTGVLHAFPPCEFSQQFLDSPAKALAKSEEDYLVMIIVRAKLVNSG
The experiment in a line: co-IP; immunoprecipitation with antisera against Setd1b or Rbm15 from whole cell extracts of murine 6133 megakaryoblastic leukemic cells, Western blotting.

Assay [2] deals with Setd1b of murine 6133 megakaryoblastic leukemic cells (mouse (endogenous in 6133)) (UniProt Q8CFT2). The description is as above.
The target of assay [3] is T2, FLAG-Setd1b fragment (1–867 aa) (human) (UniProt Q9UPS6).
T2 sequence: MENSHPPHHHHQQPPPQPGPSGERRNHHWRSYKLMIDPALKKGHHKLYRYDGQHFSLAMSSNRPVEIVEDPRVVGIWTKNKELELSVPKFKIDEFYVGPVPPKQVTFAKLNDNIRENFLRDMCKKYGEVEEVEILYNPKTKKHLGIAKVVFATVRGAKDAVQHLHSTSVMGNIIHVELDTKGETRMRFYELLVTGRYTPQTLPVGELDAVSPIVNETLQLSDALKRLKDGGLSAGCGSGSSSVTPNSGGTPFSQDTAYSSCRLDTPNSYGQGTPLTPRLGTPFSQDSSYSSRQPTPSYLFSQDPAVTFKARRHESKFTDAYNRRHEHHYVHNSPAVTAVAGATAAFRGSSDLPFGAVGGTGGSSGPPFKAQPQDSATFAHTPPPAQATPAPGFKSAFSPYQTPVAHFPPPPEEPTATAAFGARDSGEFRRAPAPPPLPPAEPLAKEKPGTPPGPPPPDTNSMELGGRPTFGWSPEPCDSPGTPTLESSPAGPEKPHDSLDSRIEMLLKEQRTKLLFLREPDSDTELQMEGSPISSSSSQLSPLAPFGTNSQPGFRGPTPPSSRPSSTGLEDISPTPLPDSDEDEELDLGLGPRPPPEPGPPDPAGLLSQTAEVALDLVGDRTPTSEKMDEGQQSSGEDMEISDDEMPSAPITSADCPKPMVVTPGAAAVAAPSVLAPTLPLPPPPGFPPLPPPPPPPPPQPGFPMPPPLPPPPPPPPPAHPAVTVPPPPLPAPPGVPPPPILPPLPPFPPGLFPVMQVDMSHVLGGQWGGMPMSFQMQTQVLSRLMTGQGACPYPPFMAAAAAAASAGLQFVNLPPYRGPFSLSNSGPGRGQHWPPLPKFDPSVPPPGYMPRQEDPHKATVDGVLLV
The experiment in a line: co-IP; FLAG immunoprecipitation from whole cell extracts of transiently transfected HEK293 cells, Western blotting for endogenous partners. For orientation: A western blot detects proteins with antibodies after separation by electrophoresis.

Assay [4] addresses endogenous Setd1b (human (endogenous in HEK293)) (UniProt Q9UPS6). The experiment in a line: co-IP; immunoprecipitation with antisera against Setd1b or Rbm15 from nuclear extracts of HEK293 cells (endogenous proteins), Western blotting.
The target in assay [5] is T3, FLAG-tagged Setd1b 225 to 826 aa region (human) (UniProt Q9UPS6).
T3 sequence: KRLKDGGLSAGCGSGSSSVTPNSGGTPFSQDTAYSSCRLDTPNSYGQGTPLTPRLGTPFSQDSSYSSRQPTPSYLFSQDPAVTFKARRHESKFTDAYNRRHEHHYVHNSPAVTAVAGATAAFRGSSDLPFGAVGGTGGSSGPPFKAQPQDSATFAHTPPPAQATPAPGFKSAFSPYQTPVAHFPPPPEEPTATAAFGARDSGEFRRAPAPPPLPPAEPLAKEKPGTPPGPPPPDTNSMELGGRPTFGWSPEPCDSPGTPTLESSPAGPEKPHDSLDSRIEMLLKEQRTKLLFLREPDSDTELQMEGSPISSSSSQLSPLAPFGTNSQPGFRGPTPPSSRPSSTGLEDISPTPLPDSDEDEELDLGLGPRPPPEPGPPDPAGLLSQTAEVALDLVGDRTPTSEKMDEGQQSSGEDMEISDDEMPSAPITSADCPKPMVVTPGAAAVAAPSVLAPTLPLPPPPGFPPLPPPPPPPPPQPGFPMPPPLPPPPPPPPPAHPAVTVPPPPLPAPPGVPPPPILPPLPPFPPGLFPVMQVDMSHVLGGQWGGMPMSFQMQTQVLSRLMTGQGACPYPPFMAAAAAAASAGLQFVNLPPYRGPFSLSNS
Put plainly: co-IP; FLAG immunoprecipitation (FLAG-IgG agarose) from nuclear extracts of inducible T-REx HEK293 stable lines, Western blotting for endogenous partners.

In assay [6] the target is T4, FLAG-Setd1b (aa 225–1671) (human) (UniProt Q9UPS6).
T4 sequence: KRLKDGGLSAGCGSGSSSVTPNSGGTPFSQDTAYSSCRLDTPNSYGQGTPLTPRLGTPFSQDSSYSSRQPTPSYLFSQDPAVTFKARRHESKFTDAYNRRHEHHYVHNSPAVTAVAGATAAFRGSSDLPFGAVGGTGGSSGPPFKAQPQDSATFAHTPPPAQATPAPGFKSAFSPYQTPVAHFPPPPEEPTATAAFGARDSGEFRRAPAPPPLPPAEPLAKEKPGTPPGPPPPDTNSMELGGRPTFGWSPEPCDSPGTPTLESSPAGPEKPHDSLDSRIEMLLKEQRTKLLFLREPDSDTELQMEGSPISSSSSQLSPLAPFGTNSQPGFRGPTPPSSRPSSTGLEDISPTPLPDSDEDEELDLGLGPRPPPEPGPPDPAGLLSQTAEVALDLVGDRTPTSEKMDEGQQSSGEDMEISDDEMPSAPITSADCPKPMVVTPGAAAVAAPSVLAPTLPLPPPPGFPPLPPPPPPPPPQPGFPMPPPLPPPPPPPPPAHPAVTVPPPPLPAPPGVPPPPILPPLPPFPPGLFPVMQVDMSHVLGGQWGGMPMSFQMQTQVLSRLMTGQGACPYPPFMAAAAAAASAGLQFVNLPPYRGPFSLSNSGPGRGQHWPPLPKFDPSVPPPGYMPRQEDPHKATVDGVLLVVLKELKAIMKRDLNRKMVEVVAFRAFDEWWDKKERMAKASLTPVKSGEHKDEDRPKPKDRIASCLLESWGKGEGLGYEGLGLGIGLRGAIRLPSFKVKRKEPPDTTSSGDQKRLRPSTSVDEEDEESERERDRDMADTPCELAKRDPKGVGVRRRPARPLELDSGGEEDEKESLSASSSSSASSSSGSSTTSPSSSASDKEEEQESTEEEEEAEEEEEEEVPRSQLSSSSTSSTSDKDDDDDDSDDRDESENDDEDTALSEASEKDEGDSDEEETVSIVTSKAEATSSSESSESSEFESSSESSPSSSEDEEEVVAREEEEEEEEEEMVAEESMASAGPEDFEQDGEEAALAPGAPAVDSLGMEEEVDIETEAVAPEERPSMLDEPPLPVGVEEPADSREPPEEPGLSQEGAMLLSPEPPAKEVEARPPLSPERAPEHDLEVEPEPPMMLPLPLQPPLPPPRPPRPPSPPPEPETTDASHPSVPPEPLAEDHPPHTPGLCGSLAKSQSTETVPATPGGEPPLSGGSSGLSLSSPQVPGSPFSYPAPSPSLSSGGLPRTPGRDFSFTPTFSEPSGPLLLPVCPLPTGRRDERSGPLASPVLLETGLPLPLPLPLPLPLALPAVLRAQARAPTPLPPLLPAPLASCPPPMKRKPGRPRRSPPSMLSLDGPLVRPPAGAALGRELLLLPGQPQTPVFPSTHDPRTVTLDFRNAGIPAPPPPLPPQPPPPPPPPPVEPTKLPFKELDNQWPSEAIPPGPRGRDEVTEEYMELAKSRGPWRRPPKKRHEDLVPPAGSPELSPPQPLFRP
The experiment in a line: co-IP; FLAG immunoprecipitation from nuclear extracts of transiently transfected HEK293 cells, Western blotting for endogenous partners.

In assay [7] the target is FLAG-tagged full-length Setd1b (human) (UniProt Q9UPS6). The assay is described as above.

B1: Mkl1 of murine 6133 megakaryoblastic leukemic cells (protein, UniProt Q8K4J6 1-964)
chain: MTLLEPEMLMMAVQSVLQLKLQQRRTREELVSQGIMPPLKSPAAFHEQRRSLERARTEDYLKRKIRSRPERAELVRMHILEETSAEPSLQAKQLKLKRARLADDLNEKIAQRPGPMELVEKNILPVESSLKEAIIVGQVNYPKVADSSSFDEDSSDALSPEQPASHESQGSVPSPLESRVSDPLPSATSISPTQVLSQLPMAPDPGETLFLAEQPPLPPAPLLPPSLANGSIVPTAKPAPTLIKQSQPKSASEKSQRSKKAKELKPKVKKLKYHQYIPPDQKQDKGAPAMDSSYAKILQQQQLFLQLQILNQQQQQQQQQHYNYQAILPAPPKPSAETPGSSAPTPSRSLSTSSSPSSGTPGPSGLARQSSTALAAKPGALPANLDDMKVAELKQELKLRSLPVSGTKTELIERLRAYQDQVSPAPGAPKAPATTSVLSKAGEVVVAFPAALLSTGSALVTAGLAPAEMVVATVTSNGMVKFGSTGSTPPVSPTPSERSLLSTGDENSTPGDAFGEMVTSPLTQLTLQASPLQIVKEEGARAASCCLSPGARAELEGLDKDQMLQEKDKQIEELTRMLQQKQQLVELLRLQLEQQKRAQQPAPASSPVKRESGFSSCQLSCQPQGSAHAFGSGLVVPTTNHGDTQAPAPESPPVVVKQEAGPPEPDLAPSSQLLLGSQGTSFLKRVSPPTLVTDSTGTHLILTVTNKSADGPGLPAGSPQQPLSQPGSPAPGPPAQMDLEHPPQPPFATPTSLLKKEPPGYEETVTQQPKQQENGSSSQHMDDLFDILIQSGEISADFKEPPSLPGKEKSPPAAAAYGPPLTPQPSPLSELPQAAPPPGSPTLPGRLEDFLESSTGLPLLTSGHEGPEPLSLIDDLHSQMLSSSAILDHPPSPMDTSELHFAPEPSSGMGLDLAVGHLDSMDWLELSSGGPVLSLAPLSTAAPSLFSMDFLDGHDLQLHWDSCL
On to B1, for which the binding entry in assay [1] and in assay [2] was “no binding” in each case.

B2: endogenous Rbm15 (protein, UniProt Q96T37 1-977)
chain: MRTAGRDPVPRRSPRWRRAVPLCETSAGRRVTQLRGDDLRRPATMKGKERSPVKAKRSRGGEDSTSRGERSKKLGGSGGSNGSSSGKTDSGGGSRRSLHLDKSSSRGGSREYDTGGGSSSSRLHSYSSPSTKNSSGGGESRSSSRGGGGESRSSGAASSAPGGGDGAEYKTLKISELGSQLSDEAVEDGLFHEFKRFGDVSVKISHLSGSGSGDERVAFVNFRRPEDARAAKHARGRLVLYDRPLKIEAVYVSRRRSRSPLDKDTYPPSASVVGASVGGHRHPPGGGGGQRSLSPGGAALGYRDYRLQQLALGRLPPPPPPPLPRDLERERDYPFYERVRPAYSLEPRVGAGAGAAPFREVDEISPEDDQRANRTLFLGNLDITVTESDLRRAFDRFGVITEVDIKRPSRGQTSTYGFLKFENLDMSHRAKLAMSGKIIIRNPIKIGYGKATPTTRLWVGGLGPWVPLAALAREFDRFGTIRTIDYRKGDSWAYIQYESLDAAHAAWTHMRGFPLGGPDRRLRVDFADTEHRYQQQYLQPLPLTHYELVTDAFGHRAPDPLRGARDRTPPLLYRDRDRDLYPDSDWVPPPPPVRERSTRTAATSVPAYEPLDSLDRRRDGWSLDRDRGDRDLPSSRDQPRKRRLPEESGGRHLDRSPESDRPRKRHCAPSPDRSPELSSSRDRYNSDNDRSSRLLLERPSPIRDRRGSLEKSQGDKRDRKNSASAERDRKHRTTAPTEGKSPLKKEDRSDGSAPSTSTASSKLKSPSQKQDGGTAPVASASPKLCLAWQGMLLLKNSNFPSNMHLLQGDLQVASSLLVEGSTGGKVAQLKITQRLRLDQPKLDEVTRRIKVAGPNGYAILLAVPGSSDSRSSSSSAASDTATSTQRPLRNLVSYLKQKQAAGVISLPVGGNKDKENTGVLHAFPPCEFSQQFLDSPAKALAKSEEDYLVMIIVRGFGFQIGVRYENKKRENLALTLL
In the case of B2, the binding result in assay [3], in assay [4], in assay [5], in assay [6] and in assay [7] was “binds” each time.

Values taken from article PMC3424240.
